# Among all 310,000 compounds or so, about 2,200 (0.71%) showed an effect of 50% or more. Effects have a minus sign here. The list shows a part of the results.
# Molecular target: human ether-à-go-go-related gene (hERG) potassium channel (human, UniProt Q12809)
# Assay: primary screen, population patch clamp on CHO cells stably expressing hERG
# Chain of human ether-à-go-go-related gene (hERG) potassium channel (Q12809 whole entry, looked up): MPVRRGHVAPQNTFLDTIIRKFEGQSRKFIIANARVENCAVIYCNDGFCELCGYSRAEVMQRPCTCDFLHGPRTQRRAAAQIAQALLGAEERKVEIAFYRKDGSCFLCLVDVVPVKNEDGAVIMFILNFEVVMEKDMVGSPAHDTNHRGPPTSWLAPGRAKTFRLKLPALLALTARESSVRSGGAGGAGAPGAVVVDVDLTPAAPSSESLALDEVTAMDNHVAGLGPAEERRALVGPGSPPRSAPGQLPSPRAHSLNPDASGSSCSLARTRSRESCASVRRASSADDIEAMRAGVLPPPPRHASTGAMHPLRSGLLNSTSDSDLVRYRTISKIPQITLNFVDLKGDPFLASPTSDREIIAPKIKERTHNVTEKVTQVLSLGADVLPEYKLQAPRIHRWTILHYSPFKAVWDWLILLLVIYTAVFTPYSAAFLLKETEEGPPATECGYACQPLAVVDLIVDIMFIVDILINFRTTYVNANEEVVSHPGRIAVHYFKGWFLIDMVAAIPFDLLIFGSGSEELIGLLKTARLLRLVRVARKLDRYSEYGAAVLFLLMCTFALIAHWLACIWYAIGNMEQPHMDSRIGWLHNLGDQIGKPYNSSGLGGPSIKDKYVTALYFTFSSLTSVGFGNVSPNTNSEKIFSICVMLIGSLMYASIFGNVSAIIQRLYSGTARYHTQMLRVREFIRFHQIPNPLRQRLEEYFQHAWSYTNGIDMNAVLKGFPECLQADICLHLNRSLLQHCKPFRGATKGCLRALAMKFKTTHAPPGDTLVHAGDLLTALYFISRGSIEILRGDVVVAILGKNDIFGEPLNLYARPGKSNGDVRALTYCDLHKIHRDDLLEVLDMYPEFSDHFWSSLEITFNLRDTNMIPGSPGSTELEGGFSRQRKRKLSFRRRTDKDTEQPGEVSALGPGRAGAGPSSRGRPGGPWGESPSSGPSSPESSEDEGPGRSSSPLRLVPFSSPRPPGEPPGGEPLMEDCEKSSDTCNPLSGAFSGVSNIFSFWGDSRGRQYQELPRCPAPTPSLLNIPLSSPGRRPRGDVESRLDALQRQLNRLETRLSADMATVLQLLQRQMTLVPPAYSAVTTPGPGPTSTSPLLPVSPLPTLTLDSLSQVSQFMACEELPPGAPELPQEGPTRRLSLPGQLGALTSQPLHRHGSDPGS
row,Structure (SMILES),"hERG current change (%, negative = inhibition) at 1uM"
1,CNC(=S)N1CCN(c2nc(-c3cccc(OC)c3)cs2)CC1,6.81%
2,CCN(CC)S(=O)(=O)c1ccc2oc(C(=O)Nc3ccc(OC)cc3OC)c(C)c2c1,10%
3,CC(C)C[C@H](NC(=O)C1CCN(S(=O)(=O)c2ccccc2)CC1)C(=O)NCc1ccccn1,8.15%
4,Cn1nnnc1NCc1c(F)cccc1Cl,10.1%
5,CCOC(=O)C1=C(CC)OC(N)=C(C#N)C1c1ccsc1 (stereo not drawn),12.1%
6,Cc1ccc(C)c(NC(=O)c2cc[n+](C)cc2)c1.[I-],10.9%
7,Clc1c(Cl)c(Cl)c2n[nH]nc2c1Cl,18%
8,CC(=O)N(c1ccc(Cl)cc1)c1c[nH]c2ccccc12,0.849%
9,O=C(NCC(=O)N1CCN(C(c2ccccc2)c2ccccc2)CC1)c1ccc(Br)o1,10.6%
10,CC(C)CCc1c(O)nc(SCC(=O)N2CCCCCC2)[nH]c1=O,10.6%
11,COc1ccc(OCc2cc(C(=O)NC(C)Cc3cccnc3)no2)c(Cl)c1 (stereo not drawn),6.07%
12,CN(CCOc1ccc(Cl)cc1)C(=O)c1ccc(S(=O)(=O)N2CCOCC2)cc1,-28.7%
13,CCC(OC(=O)c1ccco1)C(=O)NCc1ccc(OC)cc1 (stereo not drawn),9.51%
14,CCOC(=O)CNC(=O)c1nn(-c2cccc(OC)c2)c(=O)c2ccccc12,1.39%
15,CC(=O)c1ccc(NC2OC(C)C(O)C(O)C2O)cc1 (stereo not drawn),9.5%
16,C=CCc1cccc(/C=N/NC(=O)C(=O)Nc2ccc(C)cc2)c1O,17.3%
17,CC1(C)Cc2cccc(OCC(=O)N3CCN(c4cccc(Cl)c4)CC3)c2O1,13.6%
18,Cc1nc(NC(=O)CN2CCCCC2)sc1C(=O)N(C)C,0.291%
19,Cc1ccc(N(C(=O)CNC(=O)c2ccco2)C(C(=O)NCC2CCCO2)c2ccccc2)cc1C (stereo not drawn),3.11%
20,CCOC(=O)N1CCC(NC(=O)C2CCN(S(=O)(=O)c3cnc[nH]3)CC2)CC1,11%
21,Cc1ccccc1OCCN1C(=O)c2ccccc2C1=O,7.18%
22,COC(=O)C(NC(=O)c1ccco1)(Nc1nc(C2CC2)cs1)C(F)(F)F (stereo not drawn),14.1%
23,NC(=O)C1CCN(C(=O)c2ccc3c(c2)S(=O)(=O)c2ccccc2C3=O)CC1,6.98%

row,Structure (SMILES),"hERG current change (%, negative = inhibition) at 1uM"
1,Cc1ccc(OCCNC(=O)Cc2ccc(F)cc2)cc1,10.8%
2,O=C(Nc1ccccc1C(=O)N1CCOCC1)c1ccco1,-2.65%
3,CCCN(CCC)CCCNC(=O)CN1C(=O)CSc2ccc(S(=O)(=O)N3CCOCC3)cc21,10.4%
4,O=C(Nc1ccccc1-c1ccccc1)c1ccco1,12.3%
5,CC(Oc1ccc(F)cc1)C(=O)Nc1cccc(-c2nn[nH]n2)c1 (stereo not drawn),10.5%
6,COc1ccc(Cn2c(=O)oc3ccc(C)cc32)cc1,3.8%
7,CC1CCN(CCCNC(=O)c2cc3c(Cl)nc4ccccc4c3s2)CC1,-31.9%
8,O=C(O)C(=O)O.O=C(c1ccc(F)cc1)N1CCN(C2CC3CCC2C3)CC1 (stereo not drawn),8.97%
9,Cc1ccccc1Cn1cnc2c(NS(C)(=O)=O)c(C)c(C)cc21,13.2%
10,C[C@@H](C(=O)Nc1ccc2ccccc2c1)[C@H]1C[C@]1(C)[C@H](NS(=O)(=O)c1ccccc1)c1ccccc1,6.27%
11,O=C(CN1CCN(c2ccccc2F)CC1)NCc1ccc(Cl)cc1,4.4%
12,CCOC(=O)C1=C(COC(=O)c2sccc2C)NC(=O)NC1C (stereo not drawn),5.76%
13,CCOC(=O)Cn1c2ccc(F)cc2c2nc(C)sc21,1.71%
14,O=C(OCC#CCSc1nnc(-c2ccc(Br)cc2)o1)c1ccco1,14.4%
15,CCCOC(=O)c1c(NC(=O)CCC(=O)O)sc2c1CCCCC2,4.76%
16,CCCCC[C@H]1CN(Cc2ccccc2)C(=O)[C@@H]1CC(=O)NCc1ccc(OC)cc1,-19.4%
17,Cc1ccc(NS(=O)(=O)c2cc(C(=O)Nc3cccnc3)ccc2C)cc1,8.01%
18,O=c1ncc(F)c[nH]1,14%
19,CC1(c2ccc3c(c2)OCO3)NC(=O)N(CC(=O)c2ccc[nH]2)C1=O (stereo not drawn),10.2%
20,Cc1ccc2c(n1)sc1c(-c3ccccc3)c(C#N)c(N)nc12,6.13%
21,Cn1c(NC(=S)Nc2ccccc2)nc2ccccc21,9.88%
22,O=C(Nc1nc(-c2ccccc2)cs1)c1cccc([N+](=O)[O-])c1C(=O)O,-4.94%
23,CCc1nnc(NC(=O)CCC(=O)N2CCN(Cc3ccccc3)CC2)s1,17.3%

row,Structure (SMILES),"hERG current change (%, negative = inhibition) at 1uM"
1,O=C(NCCCn1cccn1)C1CCC(=O)N(CCc2ccccc2)C1 (stereo not drawn),2.8%
2,Cc1nc(C(=O)N2CCc3c([nH]c4ccccc34)C2c2cc(F)ccc2F)cs1 (stereo not drawn),10.2%
3,Cc1ccccc1N(C(=O)c1snc(C(N)=O)c1N)C(C(=O)NCC1CCCO1)c1ccc(N(C)C)cc1 (stereo not drawn),9.28%
4,O=C(COc1ncnc2ccc(Br)cc12)NCc1ccco1,12.3%
5,Cn1cccc1Cc1nnc(SCC(=O)NCC2CCCO2)n1CCc1ccccc1 (stereo not drawn),-4.06%
6,NC(=O)COC(=O)[C@@H]1CC(O)CN1S(=O)(=O)c1ccc2c(c1)OCCO2 (stereo partly drawn),13.8%
7,Cc1ccc(C(=O)Nc2nc(COc3ccccc3)cs2)s1,14.3%
8,Cc1c(-c2ccccc2)nc(N)c(C#N)c1-c1ccco1,9.86%
9,CC(=O)Nc1nonc1NC(=O)CSc1ncn[nH]1,-8.64%
10,NC(=O)c1cc([N+](=O)[O-])ccc1NCc1ccc(C(=O)O)cc1,16.9%
11,CCCc1nc2ccccc2c(C(=O)OCC(=O)c2ccc3c(c2)NC(=O)CO3)c1CC,11.4%
12,COC(=O)[C@H]1[C@H](CCc2ccccc2)NC(=O)N(Cc2ccccc2)[C@@H]1C,3.72%
13,O=P(O)(O)c1ccccc1OCCOCCOCCOCCOc1ccccc1P(=O)(O)O,12.7%
14,NC(=O)C1CCN(C(=S)c2ccc(-c3ccc(Br)cc3)o2)CC1,-0.415%
15,CC(=O)Nc1ccc(S(=O)(=O)N(C)CC(=O)OCC(=O)c2cc(C)n(-c3ccc4c(c3)OCO4)c2C)cc1,8.05%
16,CCOC(=O)C(C)Sc1nnc(-c2c[nH]c3ccccc23)n1C (stereo not drawn),12.4%
17,COc1c(Cl)cc(Cl)cc1CNCCNCC(C)O.Cl (stereo not drawn),5.98%
18,CCOC(=O)c1cccc(NC(=S)NCc2ccc(C)cc2)c1,8.34%
19,Cc1cccc(NC(=O)Cn2c(=O)oc3ccccc32)n1,10.5%
20,COc1ccc(Cc2nnc(SCC(=O)NCC3CCCO3)o2)cc1 (stereo not drawn),19%
21,COc1ccc(OCCC(=O)Nc2ccccc2)cc1,14.4%
22,N#Cc1cc2c(nc1SCC(=O)Nc1sc3c(c1C#N)CCC3)CCCC2,11.7%
23,CC1CN(c2snnc2C=C2C(=O)OC(C)(C)OC2=O)CC(C)O1 (stereo not drawn),8.26%

row,Structure (SMILES),"hERG current change (%, negative = inhibition) at 1uM"
1,N#C/C(=C\c1ccc(Cl)cc1)c1nc(-c2ccco2)cs1,20%
2,CN(C)CCN(C(=O)/C=C/c1cccs1)c1nc2c(F)cc(F)cc2s1.Cl,1.5%
3,CCC(C)(C)n1nnnc1C(c1cccnc1)N1CCCC(C)C1 (stereo not drawn),9.87%
4,O=C(/C=C/c1cccc(Br)c1)c1ccc2c(c1)OCO2,11%
5,COc1cc2c(c(OC)c1OC)-c1c(cc3c(c1O)OCO3)C[C@@H](C)[C@@H](C)C2,3.97%
6,O=C(c1ccc2c(c1)OCO2)N1CCN(c2ccccc2)CC1,-0.777%
7,COc1ccc(-n2c(C)cc(C(=O)CN3CCCCC3)c2C)cc1,2.5%
8,CC(C)CC1(C)NC(=O)N(CC(=O)N2C(C)CCCC2C)C1=O (stereo not drawn),6.04%
9,Cn1ccnc1SCC(=O)Nc1cccc(O)c1,1.9%
10,NC(=O)COc1ccc(NS(=O)(=O)Cc2ccccc2)cc1,19.2%
11,O=C(CSc1ccc(-c2ccccn2)nn1)Nc1cccc(F)c1,11.1%
12,CC(C)c1ccc(S(=O)(=O)Nc2ccc(N3CCOCC3)cc2)cc1,11.8%
13,COc1ccc(CCN(Cc2nc3ccccc3c(=O)[nH]2)C(=O)c2ccco2)cc1OC,9.1%
14,COc1ccc2cc(Br)ccc2c1CC(=O)NC(C)C,14.5%
15,O=C(NNC(=O)c1ccc2c(c1)OCO2)NC12CC3CC(CC(C3)C1)C2,3.5%
16,CC(C)COCc1ccc(O)c2ncccc12,21.6%
17,c1ccc(Cn2cc(CSc3ccccc3)nn2)cc1,5.07%
18,CO/N=C/NC(=O)Cc1cn(-c2ncc(C(F)(F)F)cc2Cl)c2ccccc12,8.29%
19,O=C1N[C@@H](Cc2cn(S(=O)(=O)c3c(F)c(F)c(F)c(F)c3F)c3ccccc23)C(=O)N[C@H]1Cc1ccccc1,10.7%
20,Cc1oc(C(C)(C)C)cc1C(=O)Nc1ccc2c(c1)OCCO2,10.4%
21,COc1ccccc1OCc1ccc(C(=O)N2CCCCC2)o1,7.6%
